# According to PubChem BioAssay AID1963576 (National Center for Advancing Translational Sciences (NCATS), 2024):
# Among all 46,000 compounds or so, about 60 (0.1%) were called active. Another 3% or so got no clear call; they are omitted. Calls come from the whole dose curve; as a rule, active = well fitted inhibition curve with a large enough effect; inconclusive = small, poorly fitted or top-dose-only effect; inactive = no such curve, though single readings can be large or run the other way. The list shows a part of the results.
# Test: Primary qHTS assay for Inhibitors of ovarian cancer metastasis using an organotypic tumor microenvironment (TME) model.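 For activity change, negative = inhibition: plate controls were DMSO wells for no effect and tomatine positive control wells for full effect.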 Note: nearly all actives have a fitted effect of over 65% in size.
# Conditions: SKOV3ip1-GFP adhesion/invasion on 3D omental model, fluorescence; series mostly up to 45.8 µM; activity change, negative = inhibition: at the top concentration
# In short: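 qHTS, 4-pt dose (0.36-46 umol/L); SKOV3ip1-GFP, 1,200 cells/well, no FBS; primary omental fibroblast/mesothelial co-culture 48 h pre-grown; 2 h RT + 16 h 37 C; PBS wash, 4% PFA; GFP count 488/509 nm.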
SMILES,"activity change, negative = inhibition",outcome
O=C(NC1CCCCC1)c1ccc(CSc2nc3ccncc3n2Cc2ccccc2)cc1,inactive: 5.13%,–
O=C(NC(Cc1cc(=O)[nH]c2ccccc12)C(=O)O)c1ccc(Cl)cc1 (configuration not stated),inactive: -0.551%,–
CCNS(=O)(=O)c1cc(-c2nnc(Nc3cccc(C(F)(F)F)c3)c3ccccc23)ccc1C,inactive: 7.22%,–
Cc1cc2c(cc1S(=O)(=O)N(CCO)Cc1ccccc1)OCC(=O)N2,inactive: -3.42%,–
COc1ccc(NC(=O)CN2C(=O)CSc3ccc(S(=O)(=O)N(C)C)cc32)cc1OC,inactive: 16.1%,–
CCOc1cc(C2C(C(=O)Nc3ccccc3)=C(C)Nc3ncnn32)cc(Br)c1O (configuration not stated),inactive: -6.33%,–
CN(C)c1ccc(Nc2nc(N)n(C(=O)c3c(F)cccc3F)n2)cc1,inactive: 18%,–
Cc1ccc(C)c(N2CCN(C(=O)C3CCN(S(=O)(=O)c4ccc5[nH]c(=O)oc5c4)CC3)CC2)c1,–,inactive
CCc1ccc2nc(N3CCN(C(=O)c4ccccc4)CC3)sc2c1,inactive: -13.8%,–
Cn1c(=O)oc2cc(S(=O)(=O)N3CCCC(C(=O)N4CCN(c5ccc(Cl)cc5)CC4)C3)ccc21 (configuration not stated),–,inactive
Cc1ccc(C)c(NC(=O)CCS(=O)(=O)c2cccc3nsnc23)c1,–,inactive
CCc1cccc(CC)c1N(COC)C(=O)Cn1c(CC)nc2ccccc21,inactive: -3.66%,–
Cc1ccc(NC(=O)Cn2c(CCC(=O)O)ccc2-c2cccs2)cc1Cl,inactive: -2.02%,–
CCOc1ccc(C2C(=O)N(C3CCCCCC3)CC(=O)N2CCC2=CCCCC2)cc1OC (configuration not stated),inactive: 5.12%,–
Cc1ccc(NC(=O)CN(CCc2ccccc2)S(=O)(=O)c2ccccc2)c(C)c1,inactive: 9.53%,–
CCOc1ccc(CNC(=O)Cn2nc(C)n3cccc3c2=O)cc1,inactive: -11.9%,–
CCc1ccc(-n2nc3ccc(NC(=O)c4cc(Cl)c(OC)c(Cl)c4)cc3n2)cc1,inactive: 2.83%,–
CCCCn1cc(S(=O)(=O)c2ccc(OCC)cc2)c(=O)c2cc(OC)c(OC)cc21,inactive: 16.2%,–
CN(C(=O)CSc1nc2ccc(NC(=O)c3ccccc3F)cc2s1)c1ccccc1,inactive: -10.1%,–
COC(=O)c1cccc(NC(=O)N(C)CCc2c(C)nn(C)c2C)c1,inactive: -1.39%,–
Cc1ccc(CNC(=O)c2cccc(N3CCCS3(=O)=O)c2)cc1,inactive: 1.75%,–
Cc1cc(C)cc(NC(=O)C(=O)NCC(c2ccc3c(c2)OCO3)N2CCOCC2)c1 (configuration not stated),–,inactive
COc1cc(N2C(=O)CSC23C(=O)N(C)c2ccccc23)cc(OC)c1OC (configuration not stated),inactive: -10.8%,–
CCOc1ccc(N2CC(C)Cn3c2nc2c3c(=O)n(CC(=O)O)c(=O)n2C)cc1 (configuration not stated),–,inactive

SMILES,"activity change, negative = inhibition",outcome
COc1ccc(CN2CCc3nc(Nc4ccccc4)ncc3C2)c(OC)c1OC,inactive: -5.54%,–
Cc1ccc(CNC(=O)Cn2c(=O)n(Cc3ccccc3)c(=O)c3c2c2cc(C)ccc2n3C)cc1,inactive: 73.8%,–
CC(C)c1ccc(NC(=O)c2cn(C3CCCCC3)c(=O)c3c2c2ccccc2n3C)cc1,inactive: 7.92%,–
COc1ccc(Nc2nc3c(S(=O)(=O)c4ccccc4)nnn3c3ccc(Cl)cc23)c(OC)c1,inactive: 1.74%,–
Fc1ccc(-c2cc(-c3nc(-c4ccccc4)no3)[nH]n2)cc1,inactive: -1.14%,–
Cc1ccc2c(c1)c1c(c(=O)n(-c3cccc(Cl)c3)c(=O)n1CC(=O)c1ccc(Cl)cc1)n2C,inactive: -3.76%,–
CC(C)Cn1cc(NC(=O)NCc2ccccc2)c2ccccc2c1=O,inactive: 14.5%,–
CCCCn1c(=N)c(S(=O)(=O)c2ccccc2)cc2c(=O)n3cccc(C)c3nc21,inactive: 2.42%,–
Cc1nc2nc(SCC(=O)Nc3cccc(Cl)c3)nn2c(C)c1Cc1ccccc1,–,inactive
COc1ccccc1C1=NS(=O)(=O)N(C)C(C(=O)Nc2cc(OC)c(OC)c(OC)c2)=C1,inactive: 10.7%,–
COc1ccc(-c2nc(C)c(CCNC(=O)c3ccc(F)c(F)c3)s2)cc1,inactive: 0.728%,–
Cc1ccccc1CNC(=O)c1cccc(NC(=O)c2nsc3ccccc23)c1,inactive: 2.04%,–
CC(C)c1cc(C(C)C)c(CC(=O)NS(=O)(=O)Oc2c(C(C)C)cccc2C(C)C)c(C(C)C)c1,inactive: -10.7%,–
CCC1=Nc2cc(C(=O)NCc3ccccc3OC)ccc2Sc2ccc(Cl)cc21,inactive: -5.06%,–
Cc1c(CC(=O)N2CCCCC2)c(=O)oc2cc3occ(C(C)(C)C)c3cc12,–,inactive
COc1ccc(-c2cn3cccnc3n2)cc1NC(=O)COc1ccccc1,inactive: -7.97%,–
O=S(=O)(NCc1ccccc1Cl)c1ccc(-c2cnc(C3CC3)o2)cc1,–,inactive
COc1ccc(N2C(=O)CSC23C(=O)N(Cc2ccccc2F)c2ccccc23)cc1Cl (configuration not stated),inactive: 5.09%,–
COc1ccc(-c2oc3cc(OC)ccc3c2C(=O)c2ccc(C#N)cc2)cc1,inactive: -18.8%,–
Cc1ccc(S(=O)(=O)C2(C(=O)Nc3ccc(C)c(Cl)c3)CC2)cc1,–,inactive
CCC(=O)N1c2ccccc2CC1C(=O)NCCc1ccccc1Cl (configuration not stated),–,inactive
Cc1ccc(OCC(=O)Nc2ccc(OCc3cc(=O)n4ccsc4n3)cc2)cc1,–,inactive
Cc1cc(C)c2c(n1)SCC(=O)N2CC(=O)Nc1ccc(C)c(C)c1,–,inactive
